# In PMC11995724, “Antibiotic target discovery by integrated phenotypic and activity-based profiling of electrophilic fragments” (Cell chemical biology, 2025):
# In all, about 3,200 compounds went through this assay and about 75 (2%) showed an effect of 50% or more. This is one part of the list.
# Tested on: T1, S. aureus MSSA476
# T1 construct: MSSA476
# Design: species or system S. aureus MSSA476 (TSB) or V. cholerae SAD30 (LB); 384-well bacterial growth screen at 25 uM, OD600 relative to DMSO control
# Details: relative growth, OD600, TSB; 25 µM; inhibitor
row,SMILES,% of control remaining [%]
1,"Cc1nn(Cc2ccccc2)c(C)c1CNC(=O)CCl [4-O11, N-[(1-benzyl-3,5-dimethyl-1H-pyrazol-4-yl)methyl]-2-chloroacetamide]",107.48
2,"CC(Cl)C(=O)NCCCN1CCc2ccccc2C1 (stereo not shown) [7-M11, 2-chloro-N-[3-(1,2,3,4-tetrahydroisoquinolin-2-yl)propyl]propanamide]",85.7143
3,"N#CC(=Cc1ccc(O)cc1)C(=O)Nc1cc(Cl)ccc1Cl [9-F03, 2-cyano-N-(2,5-dichlorophenyl)-3-(4-hydroxyphenyl)prop-2-enamide]",83.5955
4,"CC(=O)c1cccc(NC(=O)C(C)Cl)c1 (stereo not shown) [6-K22, N-(3-acetylphenyl)-2-chloropropanamide]",98.6829
5,"CC(NC(=O)CCl)c1nnc(-c2ccccc2F)s1 (stereo not shown) [7-L21, 2-chloro-N-{1-[5-(2-fluorophenyl)-1,3,4-thiadiazol-2-yl]ethyl}acetamide]",97.0173
6,"Nc1c(C(=O)CCl)c(=O)[nH]c(=O)n1Cc1ccccc1 [10-J18, 6-amino-1-benzyl-5-(2-chloroacetyl)-1,2,3,4-tetrahydropyrimidine-2,4-dione]",130.938
7,"CCOC(=O)c1c(C)[nH]c(C)c1C(=O)CCl [10-C10, ethyl 4-(2-chloroacetyl)-2,5-dimethyl-1H-pyrrole-3-carboxylate]",108.125
8,"C=CC(=O)N1CCc2c(nnn2CCOC)C1 [1-N05, 1-[1-(2-methoxyethyl)-1H,4H,5H,6H,7H-[1,2,3]triazolo[4,5-c]pyridin-5-yl]prop-2-en-1-one]",84.7473
9,"Cc1n[nH]c(C)c1C=C(C#N)C(=O)Nc1ccc(SC(F)F)cc1 [8-E08, 2-cyano-N-{4-[(difluoromethyl)sulfanyl]phenyl}-3-(3,5-dimethyl-1H-pyrazol-4-yl)prop-2-enamide]",80.332
10,"CC1CC(c2ccccc2F)N(C(=O)C(C)Cl)C1 (stereo not shown) [6-H18, 2-chloro-1-[2-(2-fluorophenyl)-4-methylpyrrolidin-1-yl]propan-1-one]",89.8049
11,"C=CC(=O)NCc1noc2c1CCCC2 [3-B20, N-[(4,5,6,7-tetrahydro-1,2-benzoxazol-3-yl)methyl]prop-2-enamide]",115.629
12,"C=CC(=O)Nc1ccc(F)c(C(=O)CC)c1 [1-I22, N-(4-fluoro-3-propanoylphenyl)prop-2-enamide]",119.209
13,"C=CC(=O)N1CCC(C(=O)N2CCn3ccnc32)CC1 [2-I04, 1-(4-{1H,2H,3H-[1,3]diazolo[1,2-a]imidazole-1-carbonyl}piperidin-1-yl)prop-2-en-1-one]",123.934
14,"Cc1csc(-n2c(C)cc(C(=O)CCl)c2C)n1 [10-G05, 2-chloro-1-[2,5-dimethyl-1-(4-methyl-1,3-thiazol-2-yl)-1H-pyrrol-3-yl]ethan-1-one]",121.563
15,"CC(NC(=O)CCl)C(c1ccccc1Cl)n1cccn1 (stereo not shown) [7-D20, 2-chloro-N-[1-(2-chlorophenyl)-1-(1H-pyrazol-1-yl)propan-2-yl]acetamide]",83.5165
16,"CSc1ccccc1CC(C)NC(=O)CCl (stereo not shown) [7-D14, 2-chloro-N-{1-[2-(methylsulfanyl)phenyl]propan-2-yl}acetamide]",105.808
17,"CS(=O)(=O)NCCc1ccc(C(=O)CCl)cc1 [10-D06, N-{2-[4-(2-chloroacetyl)phenyl]ethyl}methanesulfonamide]",79.375
18,"Cc1ccc(NC(=O)C(C)Cl)cc1S(=O)(=O)N1CCOCC1 (stereo not shown) [5-D22, 2-chloro-N-[4-methyl-3-(morpholine-4-sulfonyl)phenyl]propanamide]",99.0893
19,"CCN(Cc1ccc(OC)c(F)c1)C(=O)CCl [5-D09, 2-chloro-N-ethyl-N-[(3-fluoro-4-methoxyphenyl)methyl]acetamide]",109.29
20,"Cc1ccccc1N1C(=O)CSC1=C(C#N)C(=O)N1CCCCC1 [8-B12, 2-[3-(2-methylphenyl)-4-oxo-1,3-thiazolidin-2-ylidene]-3-oxo-3-(piperidin-1-yl)propanenitrile]",76.6805
21,"C=CC(=O)NC(Cn1cnc2ccccc21)c1ccc(F)cc1 (stereo not shown) [2-C11, N-[2-(1H-1,3-benzodiazol-1-yl)-1-(4-fluorophenyl)ethyl]prop-2-enamide]",122.193
22,"CC(Cl)C(=O)N(C)Cc1ccccc1 (stereo not shown) [6-I13, N-benzyl-2-chloro-N-methylpropanamide]",115.415
23,"CC(Cl)C(=O)N(CCC#N)c1ccccc1 (stereo not shown) [6-M18, 2-chloro-N-(2-cyanoethyl)-N-phenylpropanamide]",89.8049
24,"CC(Cl)C(=O)NC1COCc2ccccc21 (stereo not shown) [6-B05, 2-chloro-N-(3,4-dihydro-1H-2-benzopyran-4-yl)propanamide]",82.6341
25,"C=CC(=O)N1CCC(C(=O)NCC2COC3(CCCC3)O2)CC1 (stereo not shown) [3-A16, N-({1,4-dioxaspiro[4.4]nonan-2-yl}methyl)-1-(prop-2-enoyl)piperidine-4-carboxamide]",117.37
26,"C=CC(=O)NCCC(=O)N1CCc2ncncc2C1 [2-C04, N-(3-oxo-3-{5H,6H,7H,8H-pyrido[4,3-d]pyrimidin-6-yl}propyl)prop-2-enamide]",106.876
27,"COc1cc(OC)c(C(=O)CCl)c(OC)c1 [10-L04, 2-chloro-1-(2,4,6-trimethoxyphenyl)ethan-1-one]",106.563
28,"C=CC(=O)N1CCC(C(=O)N2Cc3ccccc3C[C@H]2C(N)=O)CC1 [3-C19, (3S)-2-[1-(prop-2-enoyl)piperidine-4-carbonyl]-1,2,3,4-tetrahydroisoquinoline-3-carboxamide]",110.753
